# From a collection of fitness landscapes (doi:10.1126/science.1257360)
# The list shows a part of the results.
# B1: PhoQ; a variant is named by its letters at X, in order, P23837 (parent)
# chain: MKKLLRLFFPLSLRVRFLLATAAVVLVLSLAYGMVALIGYSVSFDKTTFRLLRGESNLFYTLAKWENNKLHVELPENIDKQSPTMTLIYDENGQLLWAQRDVPWLMKMIQPDWLKSNGFHEIEADVNDTSLLLSGDHSIQQQLQEVREDDDDAEMTHSVAVNVYPATSRMPKLTIVVVDTIPVELKSSYMVWSWFIYVLSANLLLVIPLLWVAAWWSLRPIEALAKEVRELEEHNRELLNPATTRELTSLVRNLNRLLKSERERYDKYRTTLTDLTHSLKTPLXXLQXXLRSLRSEKMSVSDAEPVMLEQISRISQQIGYYLHRASMRGGTLLSRELHPVAPLLDNLTSALNKVYQRKGVNISLDISPEISFVGEQNDFVEVMGNVLDNACKYCLEFVEISARQTDEHLYIVVEDDGPGIPLSKREVIFDRGQRVDTLRPGQGVGLAVAREITEQYEGKIVAGESMLGGARMEVIFGRQHSAPKDE
# Variants of: B1
# Assay: enrichment ratio after two sorts for PhoP signalling (ratio (wild type AVST 3.29)); higher = more functional
# Conditions: with PhoP (E. coli)
row,Variant,enrichment ratio
1,DEIC,≤ 0.25
2,TIKK,≤ 0.25
3,QIGG,6.19
4,HLMP,≤ 0.25
5,YWFF,≤ 0.25
6,KLNH,≤ 0.25
7,WMVV,≤ 0.25
8,AQPK,≤ 0.25
9,QFVP,≤ 0.25
10,SPLM,≤ 0.25
11,PSMM,≤ 0.25
12,LCTK,≤ 0.25
13,SAVV,3.14
14,GNLG,5.07
15,WSCN,≤ 0.25
16,KSRD,≤ 0.25
17,HSST,≤ 0.25
18,YQNP,≤ 0.25
19,HIKH,≤ 0.25
20,KDAH,≤ 0.25
21,MMET,≤ 0.25
22,VDVY,≤ 0.25
23,KPNH,≤ 0.25
24,RGVC,≤ 0.25

row,Variant,enrichment ratio
1,QFTA,≤ 0.25
2,ARCV,2.86
3,LINI,≤ 0.25
4,MRSR,≤ 0.25
5,NYDM,≤ 0.25
6,VRNE,≤ 0.25
7,DIGD,≤ 0.25
8,LGHE,≤ 0.25
9,AFFF,≤ 0.25
10,VCFI,≤ 0.25
11,HSMD,≤ 0.25
12,GSKH,≤ 0.25
13,IHDR,≤ 0.25
14,WHAQ,≤ 0.25
15,NRNC,≤ 0.25
16,RHTN,≤ 0.25
17,PNRN,≤ 0.25
18,FRMW,≤ 0.25
19,LHYW,≤ 0.25
20,CLLY,≤ 0.25
21,ANWN,≤ 0.25
22,MCHG,≤ 0.25
23,SYKK,≤ 0.25
24,MLSA,≤ 0.25

row,Variant,enrichment ratio
1,QFYI,≤ 0.25
2,NNTG,≤ 0.25
3,ETSS,≤ 0.25
4,DGID,≤ 0.25
5,NEMS,≤ 0.25
6,PHQG,≤ 0.25
7,YLGR,≤ 0.25
8,RRCE,≤ 0.25
9,VKLP,≤ 0.25
10,VWLE,≤ 0.25
11,LWCP,≤ 0.25
12,PEVR,≤ 0.25
13,NTRN,≤ 0.25
14,DLMD,≤ 0.25
15,WYIW,≤ 0.25
16,SPDI,≤ 0.25
17,FILQ,11.5
18,MQNC,≤ 0.25
19,FHCG,≤ 0.25
20,KDHC,≤ 0.25
21,NYKC,≤ 0.25
22,FHSA,≤ 0.25
23,VYNC,≤ 0.25
24,FDRN,≤ 0.25

row,Variant,enrichment ratio
1,YWVR,≤ 0.25
2,DKIW,≤ 0.25
3,YILP,≤ 0.25
4,ACYP,2.64
5,LCRW,≤ 0.25
6,KFCS,≤ 0.25
7,LDYL,≤ 0.25
8,RGSK,≤ 0.25
9,AGLI,9.21
10,MKDD,≤ 0.25
11,HKAV,≤ 0.25
12,IYMC,≤ 0.25
13,VWLV,≤ 0.25
14,MDLP,≤ 0.25
15,WPWM,≤ 0.25
16,PFHY,≤ 0.25
17,GQGI,≤ 0.25
18,QDFN,≤ 0.25
19,LGPF,≤ 0.25
20,MAVV,≤ 0.25
21,YWDE,≤ 0.25
22,KFNF,≤ 0.25
23,MFTN,≤ 0.25
24,RIDE,≤ 0.25

row,Variant,enrichment ratio
1,AWRW,≤ 0.25
2,IYQG,≤ 0.25
3,FKCN,≤ 0.25
4,TYNE,≤ 0.25
5,DNTN,≤ 0.25
6,QCIV,≤ 0.25
7,MHKM,≤ 0.25
8,DWVE,≤ 0.25
9,VVGA,≤ 0.25
10,WDPM,≤ 0.25
11,NFTP,≤ 0.25
12,RQNP,≤ 0.25
13,PVDC,≤ 0.25
14,LPMI,≤ 0.25
15,GQAF,≤ 0.25
16,HYRA,≤ 0.25
17,ITMY,≤ 0.25
18,MYED,≤ 0.25
19,DCKK,≤ 0.25
20,YCGV,≤ 0.25
21,TVCR,0.605
22,MHGW,≤ 0.25
23,IRPT,≤ 0.25
24,DFAR,≤ 0.25

row,Variant,enrichment ratio
1,VHDP,≤ 0.25
2,VFSM,≤ 0.25
3,RMIL,≤ 0.25
4,SCEQ,≤ 0.25
5,KVNG,≤ 0.25
6,EMYT,≤ 0.25
7,TCGN,1.87
8,NPES,≤ 0.25
9,AITY,3.48
10,VYIH,≤ 0.25
11,KAWS,≤ 0.25
12,RFPT,≤ 0.25
13,IRAK,≤ 0.25
14,ESHF,≤ 0.25
15,MRHR,≤ 0.25
16,ENHS,≤ 0.25
17,NGCS,≤ 0.25
18,NYQS,≤ 0.25
19,SHMC,≤ 0.25
20,FDMY,≤ 0.25
21,SGCP,≤ 0.25
22,QRHT,≤ 0.25
23,DHVL,≤ 0.25
24,VHFA,≤ 0.25

row,Variant,enrichment ratio
1,DQHW,≤ 0.25
2,QHIF,≤ 0.25
3,IWMN,≤ 0.25
4,RAWY,≤ 0.25
5,VYVT,≤ 0.25
6,PYRW,≤ 0.25
7,QCSQ,≤ 0.25
8,VAHS,≤ 0.25
9,DCTR,≤ 0.25
10,GCCA,≤ 0.25
11,TETC,24.3
12,ALHY,≤ 0.25
13,AHTV,≤ 0.25
14,MCFA,≤ 0.25
15,QADR,≤ 0.25
16,AECT,5.83
17,NRAS,≤ 0.25
18,WQCT,≤ 0.25
19,PVTM,≤ 0.25
20,FRYT,≤ 0.25
21,PPFW,≤ 0.25
22,KEFK,≤ 0.25
23,YFSQ,≤ 0.25
24,YATC,≤ 0.25

row,Variant,enrichment ratio
1,INAC,≤ 0.25
2,DPMW,≤ 0.25
3,FIAL,≤ 0.25
4,VPWW,≤ 0.25
5,MDED,≤ 0.25
6,GHST,≤ 0.25
7,ALRS,≤ 0.25
8,LGGD,≤ 0.25
9,WFFE,≤ 0.25
10,YEPF,≤ 0.25
11,WLAH,≤ 0.25
12,VRDW,≤ 0.25
13,VARA,≤ 0.25
14,VNTW,≤ 0.25
15,FPEG,≤ 0.25
16,ALWR,≤ 0.25
17,RTFH,≤ 0.25
18,QGAC,9.98
19,INWG,≤ 0.25
20,GKKE,≤ 0.25
21,DHQV,≤ 0.25
22,AGGI,12.9
23,DQFW,≤ 0.25
24,DMFN,≤ 0.25

row,Variant,enrichment ratio
1,YHFF,≤ 0.25
2,NLRT,≤ 0.25
3,HYVM,≤ 0.25
4,WDQV,≤ 0.25
5,PNKK,≤ 0.25
6,NHVL,≤ 0.25
7,IDAK,≤ 0.25
8,TLHN,≤ 0.25
9,YQGV,≤ 0.25
10,QYFK,≤ 0.25
11,YCWS,≤ 0.25
12,LDIT,≤ 0.25
13,MYIK,≤ 0.25
14,DFFC,≤ 0.25
15,YCPT,≤ 0.25
16,TNIV,≤ 0.25
17,RYMD,≤ 0.25
18,PVTI,≤ 0.25
19,NVCC,≤ 0.25
20,HFPG,≤ 0.25
21,TTWK,≤ 0.25
22,WKCW,≤ 0.25
23,MMAL,13.5
24,HSED,≤ 0.25

row,Variant,enrichment ratio
1,TMQL,12.8
2,GPGR,≤ 0.25
3,ILGF,≤ 0.25
4,ARSG,≤ 0.25
5,NQCP,≤ 0.25
6,THKV,≤ 0.25
7,FATA,≤ 0.25
8,TQQR,≤ 0.25
9,IDRV,≤ 0.25
10,TMDF,≤ 0.25
11,PNEP,≤ 0.25
12,ANME,≤ 0.25
13,DVSD,≤ 0.25
14,IAQR,≤ 0.25
15,IVYK,≤ 0.25
16,GDCF,≤ 0.25
17,DSYF,≤ 0.25
18,WLKH,≤ 0.25
19,TEQA,13.7
20,QRGW,≤ 0.25
21,AQDI,≤ 0.25
22,MQYS,6.75
23,LKSI,≤ 0.25
24,NCMF,≤ 0.25

row,Variant,enrichment ratio
1,QQTM,≤ 0.25
2,PQTD,≤ 0.25
3,LYVM,≤ 0.25
4,DPNN,≤ 0.25
5,VERM,≤ 0.25
6,GKCW,≤ 0.25
7,MDCK,≤ 0.25
8,YVMN,≤ 0.25
9,AHVG,3.51
10,WPSQ,≤ 0.25
11,PTIY,≤ 0.25
12,FCME,≤ 0.25
13,LYWH,≤ 0.25
14,GPAI,≤ 0.25
15,AWSV,≤ 0.25
16,SWTR,≤ 0.25
17,IDRE,≤ 0.25
18,DWQR,≤ 0.25
19,RAVE,≤ 0.25
20,FCPT,≤ 0.25
21,NKKH,≤ 0.25
22,VIPQ,≤ 0.25
23,TAGE,≤ 0.25
24,PFFE,≤ 0.25

row,Variant,enrichment ratio
1,PRVY,0.875
2,FHEL,≤ 0.25
3,QSDN,6.63
4,LIGD,≤ 0.25
5,DGRP,≤ 0.25
6,YCIV,≤ 0.25
7,FYIS,≤ 0.25
8,SNLP,0.256
9,EYKL,≤ 0.25
10,HNCI,≤ 0.25
11,ARAR,≤ 0.25
12,VCFF,≤ 0.25
13,TDFA,≤ 0.25
14,SGYS,0.357
15,EYQG,≤ 0.25
16,IVKL,≤ 0.25
17,HLKI,≤ 0.25
18,KFWL,≤ 0.25
19,TYIF,≤ 0.25
20,DMRQ,≤ 0.25
21,HVSI,≤ 0.25
22,HNYD,≤ 0.25
23,FNEF,≤ 0.25
24,WSEG,≤ 0.25

row,Variant,enrichment ratio
1,RGSV,≤ 0.25
2,PLNV,≤ 0.25
3,ERVM,≤ 0.25
4,GQFF,≤ 0.25
5,SLKV,≤ 0.25
6,GMFH,≤ 0.25
7,PLWM,≤ 0.25
8,DHCF,≤ 0.25
9,VMGG,≤ 0.25
10,MATG,≤ 0.25
11,HGRG,≤ 0.25
12,LQIT,≤ 0.25
13,DTKI,≤ 0.25
14,RGCQ,≤ 0.25
15,ECPH,≤ 0.25
16,QANN,8.36
17,SLAK,2.88
18,IREP,≤ 0.25
